Compound in this assay: NC1(c2ccc(-c3nc4ccn5c(=O)[nH]nc5c4cc3-c3ccccc3)cc2)CCC1 [MK-2206]
The experiment in a line: Viability of human cancer cell lines after 72 h of drug (GDSC screen). As to the method: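 Human cancer cell lines in 384-well plates, medium with 10% serum, drug for 72 h over a 256-fold dose range (nine 2-fold or five 4-fold steps up to the top dose). Adherent lines were fixed and stained with the nucleic acid dye Syto60, suspension lines read with resazurin; signal relative to control wells, capped at 0 and 100%. One two-parameter sigmoid per drug and line, fitted in a mixed model over all curves with the slope shared within a line.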

IC50 is the fitted dose that halves viability relative to control wells, and lower means more sensitive; where the fit passes the top or lowest dose, that dose stands as a limit. The AUC spans the tested range (256-fold, ending at the top dose) of the same fit; it is 1 without any effect and falls as sensitivity rises.

A word on the IC50: it is the concentration that inhibits the measured activity by half.

Take “GA-10 (Burkitt lymphoma, suspension, top dose 4 µM)”: the AUC came out at 0.647 and the IC50 was 0.594 µM.
As to GAK (melanoma, adherent, top dose 4 µM), the AUC was determined as 0.981 and the IC50 was above 4 µM.
For GAMG (glioma, adherent, top dose 4 µM) the same measures were 0.753 and 1.39 µM.
Taken in the same sequence, the figures for GB-1 (glioma, adherent, top dose 4 µM) were 0.861 and above 4 µM.
Taken in the same sequence, the figures for GCIY (stomach, adherent, top dose 4 µM) were 0.922 and above 4 µM.
With “GDM-1 (acute myeloid leukaemia, suspension, top dose 4 µM)”, the AUC turned out to be 0.97 and the IC50 is above 4 µM.
As for GI-1 (glioma, adherent, top dose 4 µM), the AUC is 0.934 and the IC50 was above 4 µM.
Taken in the same sequence, the figures for “GI-ME-N (neuroblastoma, adherent, top dose 4 µM)” were 0.924 and above 4 µM.
“GMS-10 (glioma, adherent, top dose 4 µM)”: the AUC was found to be 0.947 and the IC50 was above 4 µM.
For “GOTO (neuroblastoma, adherent, top dose 4 µM)” the same measures were 0.966 and above 4 µM.
Taken in the same sequence, the figures for “GR-ST (lymphoblastic leukaemia, suspension, top dose 4 µM)” were 0.817 and 2.86 µM.
Taken in the same sequence, the figures for “GRANTA-519 (B-cell lymphoma, suspension, top dose 4 µM)” were 0.963 and above 4 µM.
In the case of “GT3TKB (stomach, adherent, top dose 2 µM)”, the AUC was found to be 0.987 and the IC50 was above 2 µM.
Taken in the same sequence, the figures for H4 (glioma, adherent, top dose 4 µM) were 0.845 and 2.84 µM.
Take “H9 (lymphoid neoplasm, suspension, top dose 4 µM)”: the AUC turned out to be 0.991 and the IC50 is above 4 µM.
With “H290 (mesothelioma, adherent, top dose 4 µM)”, the AUC was found to be 0.921 and the IC50 is above 4 µM.
For the cell line “H2369 (mesothelioma, adherent, top dose 4 µM)”, the AUC was determined as 0.802 and the IC50 came out at 2.04 µM.
Regarding “H2373 (mesothelioma, adherent, top dose 4 µM)”, the AUC is 0.681 and the IC50 amounted to 0.92 µM.
Taken in the same sequence, the figures for “H2461 (mesothelioma, adherent, top dose 4 µM)” were 0.838 and 3.74 µM.
Taken in the same sequence, the figures for “H2591 (mesothelioma, adherent, top dose 2 µM)” were 0.95 and above 2 µM.
For “H2595 (mesothelioma, adherent, top dose 4 µM)” the same measures were 0.803 and 2.97 µM.
Consider “H2731 (mesothelioma, adherent, top dose 4 µM)”, for which the AUC was 0.799 and the IC50 amounted to 2.25 µM.
In the case of “H2795 (mesothelioma, adherent, top dose 4 µM)”, the AUC was found to be 0.864 and the IC50 was determined as 3.41 µM.
Taken in the same sequence, the figures for “H2869 (mesothelioma, adherent, top dose 4 µM)” were 0.941 and above 4 µM.
For “H3118 (head and neck, adherent, top dose 4 µM)” the same measures were 0.808 and 2.3 µM.
Turning to “H3255 (lung adenocarcinoma, adherent, top dose 4 µM)”, the AUC stood at 0.928 and the IC50 is above 4 µM.
Take “H-EMC-SS (chondrosarcoma, adherent, top dose 4 µM)”: the AUC amounted to 0.548 and the IC50 stood at 0.352 µM.
Taken in the same sequence, the figures for “HA7-RCC (kidney, adherent, top dose 4 µM)” were 0.756 and 1.5 µM.
For “HAL-01 (lymphoblastic leukaemia, suspension, top dose 4 µM)” the same measures were 0.508 and 0.262 µM.
Taken in the same sequence, the figures for “HARA (lung squamous cell carcinoma, adherent, top dose 4 µM)” were 0.749 and 1.49 µM.
Turning to “HC-1 (hairy cell leukaemia, suspension, top dose 4 µM)”, the AUC came out at 0.972 and the IC50 is above 4 µM.
For HCC38 (breast, adherent, top dose 4 µM) the same measures were 0.986 and above 4 µM.
With “HCC202 (breast, adherent, top dose 4 µM)”, the AUC worked out at 0.854 and the IC50 was above 4 µM.
For “HCC1143 (breast, adherent, top dose 4 µM)” the same measures were 0.931 and above 4 µM.
Regarding “HCC1187 (breast, suspension, top dose 4 µM)”, the AUC worked out at 0.882 and the IC50 was 3.88 µM.
Consider “HCC1395 (breast, adherent, top dose 4 µM)”, for which the AUC turned out to be 0.786 and the IC50 stood at 2.12 µM.
For “HCC1419 (breast, adherent, top dose 4 µM)” the same measures were 0.61 and 0.568 µM.
For “HCC1428 (breast, adherent, top dose 4 µM)” the same measures were 0.963 and above 4 µM.
Consider “HCC1500 (breast, adherent, top dose 4 µM)”, for which the AUC was found to be 0.988 and the IC50 was above 4 µM.
As to “HCC1569 (breast, adherent, top dose 4 µM)”, the AUC came out at 0.902 and the IC50 was above 4 µM.
Take “HCC1806 (breast, adherent, top dose 4 µM)”: the AUC worked out at 0.93 and the IC50 is above 4 µM.
For the cell line “HCC1937 (breast, adherent, top dose 4 µM)”, the AUC was found to be 0.847 and the IC50 was determined as 3.64 µM.
On to “HCC1954 (breast, adherent, top dose 4 µM)”, for which the AUC worked out at 0.907 and the IC50 was above 4 µM.
For “HCC2157 (breast, suspension, top dose 4 µM)”, the AUC was determined as 0.541 and the IC50 came out at 0.325 µM.
For “HCC2218 (breast, suspension, top dose 4 µM)” the same measures were 0.869 and above 4 µM.
For “HCC-15 (lung squamous cell carcinoma, adherent, top dose 4 µM)” the same measures were 0.857 and above 4 µM.
“HCC-44 (lung adenocarcinoma, adherent, top dose 2 µM)”: the AUC was determined as 0.711 and the IC50 stood at 0.484 µM.
“HCC-56 (large intestine, adherent, top dose 4 µM)”: the AUC was 0.946 and the IC50 was above 4 µM.
For “HCC-78 (lung adenocarcinoma, adherent, top dose 4 µM)” the same measures were 0.871 and above 4 µM.
For “HCC-366 (non-small cell lung carcinoma, adherent, top dose 4 µM)” the same measures were 0.89 and above 4 µM.
For “HCC-827 (lung adenocarcinoma, adherent, top dose 4 µM)” the same measures were 0.969 and above 4 µM.
“HCT-15 (large intestine, adherent, top dose 4 µM)”: the AUC was 0.761 and the IC50 stood at 1.5 µM.
For “HD-MY-Z (Hodgkin lymphoma, adherent, top dose 4 µM)” the same measures were 0.97 and above 4 µM.
For “HDLM-2 (Hodgkin lymphoma, suspension, top dose 4 µM)” the same measures were 0.951 and above 4 µM.
Taken in the same sequence, the figures for “HDQ-P1 (breast, adherent, top dose 4 µM)” were 0.954 and above 4 µM.
Consider “HEC-1 (endometrium, adherent, top dose 4 µM)”, for which the AUC is 0.908 and the IC50 is above 4 µM.
As to “HGC-27 (stomach, adherent, top dose 4 µM)”, the AUC is 0.652 and the IC50 worked out at 0.613 µM.
Taken in the same sequence, the figures for “HH (T-cell leukaemia, suspension, top dose 4 µM)” were 0.497 and 0.245 µM.
Taken in the same sequence, the figures for “HL-60 (acute myeloid leukaemia, suspension, top dose 4 µM)” were 0.832 and 2.19 µM.
For HLE (liver, adherent, top dose 2 µM) the same measures were 0.971 and above 2 µM.
Take “HN (head and neck, adherent, top dose 4 µM)”: the AUC was 0.898 and the IC50 was above 4 µM.
“HO-1-u-1 (head and neck, adherent, top dose 4 µM)”: the AUC stood at 0.844 and the IC50 worked out at 2.7 µM.
Take “HOP-62 (lung adenocarcinoma, adherent, top dose 4 µM)”: the AUC amounted to 0.926 and the IC50 was above 4 µM.
Taken in the same sequence, the figures for “HOS (osteosarcoma, adherent, top dose 4 µM)” were 0.917 and above 4 µM.
For “HSC-2 (head and neck, adherent, top dose 4 µM)” the same measures were 0.962 and above 4 µM.
For “HSC-39 (stomach, suspension, top dose 4 µM)” the same measures were 0.794 and 1.57 µM.
For the cell line “HT55 (large intestine, adherent, top dose 4 µM)”, the AUC was 0.949 and the IC50 was above 4 µM.
For “HT (B-cell lymphoma, suspension, top dose 4 µM)” the same measures were 0.681 and 0.762 µM.
For HT-3 (cervix, adherent, top dose 4 µM) the same measures were 0.949 and above 4 µM.

These data come from the supplement of paper PMC4967469.
